Assay results as given in the GPR68 mutational scans of Howard et al. (2025).

B1: GPR68, Q15743 (parent)
chain: MGNITADNSSMSCTIDHTIHQTLAPVVYVTVLVVGFPANCLSLYFGYLQIKARNELGVYLCNLTVADLFYICSLPFWLQYVLQHDNWSHGDLSCQVCGILLYENIYISVGFLCCISVDRYLAVAHPFRFHQFRTLKAAVGVSVVIWAKELLTSIYFLMHEEVIEDENQHRVCFEHYPIQAWQRAINYYRFLVGFLFPICLLLASYQGILRAVRRSHGTQKSRKDQIQRLVLSTVVIFLACFLPYHVLLLVRSVWEASCDFAKGVFNAYHFSLLLTSFNCVADPVLYCFVSETTHRDLARLRGACLAFLTCSRTGRAREAYPLGAPEASGKSGAQGEEPELLTKLHPAFQTPNSPGSGGFPTGRLA

Columns and labels:
[1] = variants of: B1; assay: cAMP reporter score (Enrich2 score, wild type = 0); higher = more signal; HEK293T, FACS bins
[2] = variants of: B1; assay: surface expression score (Enrich2 score, wild type = 0); higher = more signal; HEK293T, FACS bins

| Variant | cAMP reporter score ([1]; pH 5.5) | cAMP reporter score ([1]; pH 6, modulator: ogerin) | cAMP reporter score ([1]; pH 6.5, modulator: ogerin) | surface expression score [2] | cAMP reporter score ([1]; pH 6) |
| --- | --- | --- | --- | --- | --- |
| A365Q | 0.491 | 0.743 | 0.718 | -0.916 |  |
| A365R | -0.545 | -0.516 | -0.452 | -0.55 | -1.36 |
| A365S | 0.441 | -0.35 | 1.72 | -0.671 | 1.65 |
| A365T | 1.22 | 0.688 | 0.783 |  | 0.395 |
| A365V | 1.72 | 1.73 | 1.46 | -0.306 | 2.3 |
| A365W | -0.075 | 0.054 | -0.37 | -0.257 | -0.483 |
| A365Y | 0.522 | 1.01 | 0.48 | 0.52 | -0.072 |
| A365del | -0.885 | -0.756 | -1.23 | 0.07 | -1.05 |
| I19del |  | -2.31 | -0.909 | -1.64 | -0.962 |
| L23V |  | 0.828 | 0.489 | 0.55 | -0.093 |
| L43G |  | 0.249 | -0.058 | -2.24 | -0.088 |
| Y47_L48insG |  | -2.15 | -1.33 | -2.21 | 0.21 |
| I50del |  | -0.914 | -0.73 |  | -1.17 |
| N54H |  | -0.708 | 0.269 |  | 0.062 |
| N54L |  |  |  | -1.55 | -2.53 |
| N54_E55del |  | -2.37 | -1.4 | -2.96 | -1.39 |
| Y59D |  |  | -1.41 | -2.31 | -1.32 |
| T64F |  | -0.655 |  |  | -0.938 |
| T64H |  | 1.59 |  |  | 6.19 |
| I71D |  |  | -1.44 |  | -1.5 |
| I71E |  | -0.544 | -0.999 | -2.19 | -0.339 |
| S73N |  |  | -0.547 |  | 1.78 |
| F76_W77del |  |  |  | -1.09 | -1.59 |

| Variant | cAMP reporter score ([1]; pH 5.5) | cAMP reporter score ([1]; pH 6, modulator: ogerin) | cAMP reporter score ([1]; pH 6.5, modulator: ogerin) | surface expression score [2] | cAMP reporter score ([1]; pH 6) |
| --- | --- | --- | --- | --- | --- |
| N86L |  | -1.37 |  | -0.807 | -0.823 |
| G90S |  | 0.266 |  | 0.48 | 1.08 |
| Q95_V96insGS |  | -0.661 | -0.833 |  | -0.475 |
| I99C |  | -0.823 | -0.438 | -1.47 | -1.76 |
| S108_V109insGSG |  | -1.72 | -3 | -1.32 | -0.153 |
| V109_G110insGSG |  |  | -1.63 | -3.96 | -1.12 |
| G110N |  | -0.087 | 2.42 | -1.14 | 3.93 |
| G110R |  | -0.678 |  |  | -0.112 |
| G110S |  | 0.482 | -0.348 | 1.21 | 3.43 |
| G110V |  |  |  | -0.409 | -0.824 |
| L121N |  | -1.43 | -1.32 | -2.05 | -0.178 |
| H125M |  | -0.651 | -0.167 | -2.21 | 1.1 |
| H125P |  |  | -0.452 | -0.979 | -0.632 |
| F127D |  | -4.65 | -1.25 | -0.804 | -1.11 |
| F129_H130insG |  | -0.649 | -1.03 | -0.444 | -0.432 |
| L135D |  |  |  |  | 2.57 |
| L135Q |  | -0.669 |  | -0.288 | -0.057 |
| A137L |  |  |  |  | -0.119 |
| A137Q |  | -1.56 | -0.332 |  | -0.047 |
| G140K |  | -1.17 | -0.229 |  | -0.559 |
| E149N |  | -2.64 | -1.03 | -0.421 | 2.3 |
| E149W |  | -0.696 | -0.459 | -0.446 | 0.644 |
| T152K |  | -2.27 | -1.39 | -3.18 | -1.41 |

| Variant | cAMP reporter score ([1]; pH 5.5) | cAMP reporter score ([1]; pH 6, modulator: ogerin) | cAMP reporter score ([1]; pH 6.5, modulator: ogerin) | surface expression score [2] | cAMP reporter score ([1]; pH 6) |
| --- | --- | --- | --- | --- | --- |
| T152P |  |  |  |  | -0.117 |
| V162_I163insGSG |  |  | 0.568 |  | -0.711 |
| F173A |  | -1.46 |  |  | -1.82 |
| F173R |  | -1.22 | -1.48 | -1.52 | -1.61 |
| H175P |  | -3.57 | -1.78 | 0.829 | -1.48 |
| Q179del |  | -0.871 | -0.977 | -2.17 | -0.317 |
| R189_F190del |  | -2.21 |  |  | -0.224 |
| L202_A203del |  | -0.728 | -2.53 | -2.26 | -1.1 |
| I208N |  |  | -1.98 | -2.9 | -0.577 |
| I208V |  | 0.712 | -0.851 | 1.69 | -0.396 |
| L209del |  | -1.57 | -0.431 |  | -0.546 |
| T218M |  | -0.914 |  | -1.07 | -0.086 |
| T218R |  | -0.955 | 0.274 | 0.477 | -0.714 |
| R222C |  | -0.292 | 0.117 | -0.925 | 0.425 |
| R222K |  | 1.11 | 1.1 | 0.449 | 0.633 |
| R222V |  | 1.56 | 3.21 | 0.346 | 3.01 |
| T233E |  | -1.93 | 0.487 |  | -0.89 |
| T233K |  | -0.683 | -0.32 | -1.65 | -1.64 |
| T233_V234del |  |  | -0.857 | -2.33 | -2.02 |
| F237_L238insG |  | -0.657 | -0.337 |  | -1.19 |
| N266E |  |  |  | 0.128 | -1.02 |
| A267R |  |  | -1.18 |  | -0.506 |
| A281_D282insG |  | -0.723 | -1.13 | -2.11 | -0.253 |

| Variant | cAMP reporter score ([1]; pH 5.5) | cAMP reporter score ([1]; pH 6, modulator: ogerin) | cAMP reporter score ([1]; pH 6.5, modulator: ogerin) | surface expression score [2] | cAMP reporter score ([1]; pH 6) |
| --- | --- | --- | --- | --- | --- |
| P283A |  | -0.658 | -0.435 |  | -0.034 |
| V284R |  |  | -1.51 |  | -0.609 |
| R295T |  | 0.516 | 0.917 | 0.596 | 0.106 |
| P325_A327del |  | 0.204 | 0.201 | 0.649 | -0.055 |
| L344_H345insG |  | 1.6 |  |  | 1.23 |
| P354Y |  | -0.185 | -0.968 | 0.101 | -0.887 |
| G358F |  | 0.454 | -0.323 |  | 0.387 |
| T361G |  | -0.622 | -0.459 |  | -0.577 |
| S10_S12del |  | -0.719 |  |  |  |
| A24R |  | -1.49 | -2.48 | -0.405 |  |
| F45P |  | -1.49 | -0.779 | -3.16 |  |
| L82Q |  | -0.718 | -0.434 |  |  |
| D85Y |  | 0.437 |  |  |  |
| V96E |  | -0.924 | -0.69 | -1.68 |  |
| V96K |  | -1.2 | -1.89 | -0.364 |  |
| I99F |  | -0.65 |  |  |  |
| I99S |  | -1.33 |  | -1.04 |  |
| G110C |  | -1.5 | -0.433 | -0.423 |  |
| L121T |  | -0.995 | -0.427 | -0.499 |  |
| V123del |  | -1.09 | -0.943 | -2.18 |  |
| F127Q |  | -0.684 |  |  |  |

Scores with a large standard error are left out. Two further conditions of the source, in which the scores hardly spread, are not listed. Read del as a deletion of the residues named and ins as an insertion between two positions. For some assays here: The data file names ogerin without a concentration.
